From PubChem BioAssay AID504832 (National Center for Advancing Translational Sciences (NCATS), 2011)
Among all 310,000 compounds or so, about 18,000 (5.8%) were called active. The shares of active, inactive and inconclusive entries below differ from those in the screen. The call rests on the fitted dose curve; in most records, active means well fitted inhibition curve with a large enough effect; inconclusive means small, poorly fitted or top-dose-only effect, or another doubt; inactive means no such curve, though single readings can be large or run the other way. Potencies of inconclusive entries are left out as doubtful fits.

Experiment: Primary qHTS for delayed death inhibitors of the malarial parasite plastid, 48 hour incubation
Settings: P. falciparum luciferase growth in erythrocytes; series mostly up to 28.7 µM; activity change, negative = inhibition: at the top concentration
In short: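 Luciferase-expressing parasites in RBCs, 2% Hct / 0.1% parasitemia final; RPMI 1640 + 0.5% Albumax; 37 C, 5% CO2, one generation; luminescence read-out, lower signal = inhibition.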
On the % scale 0 is the no-effect control and ±100 the full control effect; potency means the concentration at half of the fitted maximal effect; tags describe the fitted curve by direction and shape.

Compound	activity change, negative = inhibition	Potency
CC(C)c1ccc(NC2CCCN(C(=O)c3cccs3)C2)cc1 (stereo not drawn)	inactive: 5.67%	
C(=C\c1ccccc1)/CSc1nnc(-c2ccncc2)n1Cc1ccco1		inconclusive [inhibitor, partial curve, poor fit]
CCOC(=O)N1CCN(C(=O)CCNS(=O)(=O)c2cc(Br)cnc2N)CC1	inactive: 0.209%	
COc1cccc(NS(=O)(=O)c2c(C)cc(C)cc2C)c1		active: 13.1 µM
CN(C)S(=O)(=O)c1ccc(N2CCCC2)c(C(=O)NNC(=O)c2ccccc2)c1		active: 7.38 µM
Cc1nc2cc(C(F)(F)F)ccc2n1C1CCN(CC(=O)N2CCCC2)CC1		inconclusive [inhibitor, partial curve, poor fit]
CCN(CC)S(=O)(=O)c1ccc(NC(=S)Nc2ccccc2)cc1		inconclusive [inhibitor, partial curve, poor fit]
Cc1ccc(N2CC(C(=O)Nc3nnc(SCC(=O)NCC4CCCO4)s3)CC2=O)cc1C (stereo not drawn)		inconclusive [inhibitor, partial curve]
O=C(O)c1cc(O)c(O)c(O)c1		inconclusive [inhibitor, partial curve]
Cc1nc(N2CCN(Cc3ccc4c(c3)OCO4)CC2)[nH]c(=O)c1C	inactive: 10%	
O=[N+]([O-])c1ccc(Cl)c(CN2CCSCC2)c1	inactive: -8.58%	
Nc1ccc(N=Nc2ccccc2)c(N)n1		inactive
O=C(Nc1ccc(S(=O)(=O)N2CCOCC2)cc1)c1ccc([N+](=O)[O-])o1		active: 10.4 µM
Cc1ccc(-n2c(SCC(=O)c3c(N)n(C4CC4)c(=O)[nH]c3=O)nnc2N2CCOCC2)cc1		active: 10.4 µM
Cc1ccc(-n2c(CNC(=O)c3cccs3)nnc2SCC(=O)NO)cc1		inconclusive [inhibitor, partial curve]
CC1=NN(c2ccccc2C(=O)O)C(=O)C1N=Nc1ccccc1 (stereo not drawn)		inconclusive [inhibitor, partial curve, poor fit]
O=C(NCc1ccccc1)c1ccc2c(=O)[nH]c3c(C(=O)NCC4CCCO4)sc(=S)n3c2c1 (stereo not drawn)		inconclusive [inhibitor, partial curve]
Nn1c(SCC(=O)Nc2ccc(Oc3ccccc3)cc2)nnc1C1CC1		active: 8.28 µM
CCCCn1c(N)c(N(CCC(C)C)C(=O)C2CC(=O)N(CCc3ccc(OC)c(OC)c3)C2)c(=O)[nH]c1=O (stereo not drawn)		inconclusive [inhibitor, partial curve, poor fit]
O=C(O)c1cccc(COc2ccc3c(c2)CCC3)c1		inconclusive [inhibitor, full curve]
C=C(C)C1CC=C(C)/C(=N/Nc2ccccc2[N+](=O)[O-])C1 (stereo not drawn)	inactive: -1.02%	
CC(C)(C)NC(=O)CN(C(=O)C(=O)Nc1ccc2c(c1)OCCO2)C(C)(C)C	inactive: -13.3%	
CC1=C/C(=N\OS(=O)(=O)c2ccccc2)C(C(C)C)=CC1=O		inconclusive [inhibitor, partial curve]

Compound	activity change, negative = inhibition	Potency
CCOc1cc(/C=N/O)cc(Br)c1OCc1ccc(Cl)cc1		inconclusive [inhibitor, single point]
Cc1ccccc1-c1nn2c(-c3ccccc3)nnc2s1		inconclusive [inhibitor, single point]
Cc1cccc(OCCCn2ccnc2)c1		active: 9.28 µM
Cc1noc(C)c1CCC(=O)Nc1c(C(C)C)cccc1C(C)C		inconclusive [inhibitor, single point]
CCn1c(SCc2cccc(C(F)(F)F)c2)nnc1-c1ccco1		inconclusive [inhibitor, single point]
Cc1ccc(CN(C(=O)C(F)(F)F)C(C(=O)NC2CCCCC2)c2ccco2)cc1 (stereo not drawn)		inconclusive [inhibitor, single point]
Cn1c(CCN2CCCCC2)nc2cc(NC(=O)COc3ccccc3)ccc21		inconclusive [inhibitor, single point]
CC(Nc1cc(N2CCN(C(=O)C(C)(C)C)CC2)ccc1[N+](=O)[O-])c1ccccc1 (stereo not drawn)		active: 8.28 µM
CC[C@@H](C)[C@H](CNC)NC[C@@H](Cc1cccc2ccccc12)NCCc1cccc(C(F)(F)F)c1		inconclusive [inhibitor, full curve]
CC(=O)Nc1ccc(C2=NN(c3ccccc3)C(c3ccccc3)C2)cc1 (stereo not drawn)		active: 9.28 µM
O=C1CCN(Cc2ccc([N+](=O)[O-])cc2)CCN1[C@H](CO)c1ccccc1		inconclusive [inhibitor, full curve, poor fit]
CC1=C(C(=O)Nc2cc(C)ccc2C)C(c2cccs2)NC(=S)N1 (stereo not drawn)	inactive: -0.853%	
COc1ccc(-c2c[n+]3c4n2CCCCC4=C(c2ccccc2)C3)cc1		inconclusive [inhibitor, full curve]
CCCCN(CCCC)CCNC(=O)CN1C(=O)CSc2ccc(S(=O)(=O)N3CCOCC3)cc21	inactive: -3.89%	
Cc1ccccc1OCCCCn1c(CO)nc2ccccc21		inconclusive [inhibitor, partial curve, poor fit]
Cc1cc(-c2ccccc2)[nH]c(=O)c1C#N	inactive: 12.6%	
Cc1oc2cc(OCc3cnn(-c4ccccc4)c3)ccc2c(=O)c1Oc1ccccc1F	inactive: -19.9%	
Cc1cccc(NC(=O)CN2CCN(CC(=O)NCC3(N4CCCCC4)CCCCC3)CC2)c1C		inconclusive [inhibitor, partial curve, poor fit]
CCOc1ccc(NS(=O)(=O)c2cc(NC(=O)c3cccc(C)c3)ccc2Cl)cc1		inconclusive [inhibitor, single point]
O=C(NNc1ccc(Cl)cc1)C1CCC1		inconclusive [inhibitor, single point]
CCc1ccccc1NC(=O)c1ccc(F)c(S(=O)(=O)N2CCC(C(N)=O)CC2)c1		inconclusive [inhibitor, partial curve, poor fit]
COc1ccccc1N1CC(C)(C)C(=O)N(C(=O)c2c(F)cccc2Cl)C1=S		inconclusive [inhibitor, single point]
CCCCn1c(=O)[nH]c(=O)c2c1nc(-c1ccccc1OC(F)F)n2C	inactive: -14.1%	

Compound	activity change, negative = inhibition	Potency
Cc1ccc(-c2cn(CCN)c(-c3ccncc3)n2)cc1		inconclusive [inhibitor, partial curve]
COc1ccccc1NC(=O)c1ccc2snnc2c1	inactive: 7.1%	
COc1ccccc1C(=O)NCCC(=O)Nc1ccc(S(=O)(=O)N2CC(C)CC(C)C2)cc1 (stereo not drawn)		inconclusive [inhibitor, partial curve]
COc1ccc(CC2S/C(=C(\C#N)C(=O)NCc3ccco3)N(c3ccc(C)cc3)C2=O)cc1 (stereo not drawn)		inconclusive [inhibitor, partial curve]
CCC(CC)COC(=O)C1=C(C)NC(=O)NC1c1ccc([N+](=O)[O-])cc1 (stereo not drawn)		inconclusive [inhibitor, single point]
Cc1ccc(C(=O)c2ccccc2C(=O)OCC(=O)N2C(C)CCCC2C)cc1 (stereo not drawn)		inconclusive [inhibitor, single point]
COc1ccccc1CCNC(=O)c1cccc(S(=O)(=O)NCc2ccccc2)c1		inconclusive [inhibitor, partial curve, poor fit]
Cc1c(Cc2ccccc2)c(=O)oc2cc(OCC(=O)NCc3ccccn3)ccc12		inconclusive [inhibitor, partial curve]
Cc1ccc(N2C(=O)C3C4C=CC(C4)C3C2=O)cc1C (stereo not drawn)	inactive: -11.5%	
CC(Cc1ccccc1)NC(=O)CSc1nc2nc3c(cc2c(=O)n1-c1ccccc1)COC(C)(C)C3 (stereo not drawn)		inconclusive [inhibitor, single point]
COc1ccc(OC)c(NC(=O)C(=O)/C=C(\O)c2cc(OC)ccc2OC)c1	inactive: 0.566%	
CCCCOc1ccc(NC2=NC3(CCCCC3)N=C(N)N2)cc1		active: 0.657 µM
CC(C)CSc1nc2c(c(=O)[nH]c(=O)n2C)n1CC(O)COc1cccc2ccccc12 (stereo not drawn)		inconclusive [inhibitor, partial curve]
Cc1ncc(CN=Cc2ccc(Cl)cc2)c(N)n1	inactive: -4.28%	
Cc1ccc(CN2CCN(Cc3cc4ccccc4o3)CC2CCO)cc1 (stereo not drawn)	inactive: 27.8%	
COc1ccc(CCNC(=O)C(=O)NCC2OCCN2S(=O)(=O)c2ccc(F)cc2)cc1OC (stereo not drawn)		inconclusive [inhibitor, single point]
Cc1ccc(S(=O)(=O)N2CCN(C(=O)Cc3ccc(S(=O)(=O)N4CCOCC4)s3)CC2)cc1		inconclusive [inhibitor, partial curve]
COCCCNC(=O)c1ccccc1Oc1ccccc1		inconclusive [inhibitor, full curve, poor fit]
O=C(O)c1ccccc1C(=O)NC1CCCCNC1=O (stereo not drawn)		inconclusive [inhibitor, full curve, poor fit]
CCn1cc(C(=O)NN)c(=O)c2cc(F)c(N3CCOCC3)cc21		inconclusive [inhibitor, partial curve]
Cc1ccc(-n2ncc3c2CCCC3NC(=O)c2ccccc2N2CCOCC2)cc1C (stereo not drawn)		inconclusive [inhibitor, single point]
COc1cc(C(=O)N2CCN(c3ccccc3Cl)CC2)ccc1OCC(=O)N1CCOCC1		inconclusive [inhibitor, partial curve, poor fit]
